The RNAGym collection of RNA variant scans (doi:10.7554/elife.90254)
The source gives no read counts; variants with many changes may rest on few reads.

B1: LINE1-mini (parent)
chain: GGCAGAGCUCAACACAGCGUGGCAAAGUGGCUGUGGCUAGACUGCC

Variants of: B1
Assay: self-cleavage, relative activity (ratio to wild type); higher = more cleavage; in vitro, sequencing; the parent is a self-cleaving ribozyme

Variant	self-cleavage
G5C C10U A16G	0.05
G5A C10G G36U	0.06
C18A G22U C42G	0.02
G5C A6C G17A	0.02
G1A C3A U20G C23U G27C C31A C37G C45U	2
C3A A12G G29C U32C	0.85
A11U C13G U32G U43A	0.01
C3G G5U U20A C23A C31U	0.02
G33C U34A U38G	0.03
A12G C13U C15U C18A G36U G44U	0.02
G2A C15A G22C	0.29
G5A G17C C31G U34A	0.04
G17A U38G C46U	0.01
A12U A14C C31G	0
G2C C3G C23U	0.09
G7U C8U A16U G21U	0.09
G5U A25U A26G G40U	0.12
U9G A12U A16C G21A A24G	0
C8U U9C G22A C37G A41G C45A C46A	0.01
G5A G21A A41U	0.11
A14G A16U G35A C46A	0.06

Variant	self-cleavage
G1A C8U G21U G29A G35A A41U	0.07
C8G C10G A14G G21U C23G	0.01
A12U U20G A26U	0.26
A6U U32G U38C	0.25
C8G G33U C37U	0.03
C3U A11U G22A	0.32
C8U A14C U43C G44U	0.03
C8U A12G C13G A16G C37U C45U	0.14
A4C G17A G30C	0.11
C13G C15U C18U G22U A26G C46G	0.02
G17A G19C U20A A25G G36C	0.04
G2C G7C A11U A14U A16G G19U G21C A41C	0.01
G2C A4G C10U G44A	0.04
C10A C13G U20C	0.02
G2U C3U G30A U38C A41C	0.03
G7U G19A G21U C37U	0.01
A25C A41U C46U	0.18
G5A A6U G21U A24G	0.15
A4G C8A C10G G22A	0.02
C8A C10A A41U	0.02
A11G U20A G27C G30U	0.02

Variant	self-cleavage
C8U C10A C15U A26U G29C G30A A41C G44U	0.02
A6C C8G G19A U28A G30A	0.04
C8U G27U G40A	0.33
C3A U20C U38C	0.26
U20C G35U A41C C42A U43A	0.01
A12C C15G A16G A39U G40A	0.01
G1A G21U G40U	0.5
A4C C15A G21U U28C C37G	0.03
A6U C10G C23A U38G	0.02
G7A G21U U34A A39G	0.02
G2C C8G U20G G33U	0.19
A4C G21U G44U	0.03
A11G G17U G30U A39U	0.01
C23A C31G U32A G36A	0.03
G5U G17A G30A G33U U38G G44U C45G	0.01
C13G U20G G21U U28G	0.01
G1C C15A A39G	0.02
G17A C37U U43C G44U	0
G7C C15G G19A	0.03
G5U G7A C23U C46U	0.31
G5A A14C U34G U43C	0

Variant	self-cleavage
C3A A14U G17C G22C U38A	0.08
C10A U20C G21C G40U	0.03
G29A G35A A39G A41U G44U	0.09
A25G G29A G30A	0.13
G1A A6C C13G G29C G36C	0.21
G2A G7A C10A A11C G19A U34C U43A	0.08
C3U A6G A24U G36U	0.17
G1C A6C C10A C23A	0.01
C10G C13U C15U A26U	0.03
C23A C31G U34C	0.04
C3U U9C G36A A41U	0.05
G1U G36U G40C	0.04
U9A C23A G30U	0.05
G2C G5A G30A G36C	0.15
C10U A12U U20G G22U G40U	0.01
G2A G7A G33A	0.4
G21U A26G C37A	0.06
C3U A16C C18A G21C A25G A39C	0.01
A12U A16C U20A	0.08
G2A A6G C8U U20G	0.19
G2A A12U C15G C18G A41C	0.1
